Results as given in article PMC4336329 (PLoS ONE, 2015).
Out of some 310,000 compounds screened, about 14,000 (4.5%) showed an effect of 50% or more. The effect is printed as a negative number. Some of the results follow.

Target: human ether-à-go-go-related gene (hERG) potassium channel (human, UniProt Q12809)
Test: primary screen, population patch clamp on CHO cells stably expressing hERG
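Further: peak tail current of the secondary pulse compared with the same well before compound.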

human ether-à-go-go-related gene (hERG) potassium channel, sequence (Q12809 whole entry, looked up): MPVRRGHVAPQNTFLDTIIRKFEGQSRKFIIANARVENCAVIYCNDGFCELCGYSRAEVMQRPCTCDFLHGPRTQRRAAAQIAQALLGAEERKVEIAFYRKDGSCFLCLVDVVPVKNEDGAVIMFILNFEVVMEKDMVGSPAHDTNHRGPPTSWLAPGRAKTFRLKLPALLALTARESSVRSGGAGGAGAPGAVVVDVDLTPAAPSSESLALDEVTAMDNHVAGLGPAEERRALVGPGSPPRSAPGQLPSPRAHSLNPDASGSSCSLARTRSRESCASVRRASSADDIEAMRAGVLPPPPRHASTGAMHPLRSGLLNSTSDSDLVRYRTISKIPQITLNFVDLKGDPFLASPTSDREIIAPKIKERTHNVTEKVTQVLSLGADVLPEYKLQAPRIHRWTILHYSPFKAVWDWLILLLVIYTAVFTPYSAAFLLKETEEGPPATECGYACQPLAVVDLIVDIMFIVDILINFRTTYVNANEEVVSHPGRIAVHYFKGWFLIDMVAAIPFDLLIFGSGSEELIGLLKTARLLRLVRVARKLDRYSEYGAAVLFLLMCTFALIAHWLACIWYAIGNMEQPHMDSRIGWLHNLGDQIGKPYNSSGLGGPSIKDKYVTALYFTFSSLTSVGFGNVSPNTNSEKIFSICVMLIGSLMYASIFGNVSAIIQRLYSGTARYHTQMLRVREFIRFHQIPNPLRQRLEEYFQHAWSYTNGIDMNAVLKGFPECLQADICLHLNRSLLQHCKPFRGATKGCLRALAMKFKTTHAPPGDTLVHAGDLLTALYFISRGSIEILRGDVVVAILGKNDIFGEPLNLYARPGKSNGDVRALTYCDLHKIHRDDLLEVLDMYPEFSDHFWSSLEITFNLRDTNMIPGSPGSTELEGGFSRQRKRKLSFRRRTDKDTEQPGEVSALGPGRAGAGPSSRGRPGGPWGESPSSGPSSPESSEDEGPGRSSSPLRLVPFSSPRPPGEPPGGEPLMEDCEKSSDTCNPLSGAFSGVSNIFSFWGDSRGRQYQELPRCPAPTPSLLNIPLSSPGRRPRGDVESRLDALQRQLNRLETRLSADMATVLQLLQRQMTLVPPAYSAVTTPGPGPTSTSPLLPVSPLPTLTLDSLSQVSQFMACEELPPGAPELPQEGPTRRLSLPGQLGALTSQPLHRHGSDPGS

| SMILES | hERG current change (%, negative = inhibition) at 10uM |
| --- | --- |
| COc1ccc(OC)c(NC(=O)CNC(=O)Cn2c(C)cc3ccccc3c2=O)c1 | -3.8% |
| O=C(c1ccccc1)c1nn(-c2ccc(Cl)cc2)c(=O)cc1C(F)(F)F | 4.89% |
| O=C1CN(C(=O)c2cc([N+](=O)[O-])ccc2Cl)C(c2ccccc2)c2cc(F)ccc2N1 (stereo not shown) | -45.8% |
| COc1ccc(C(=O)c2ccc([N+](=O)[O-])cc2)cc1S(=O)(=O)N1CCC(C(=O)O)CC1 | 5.12% |
| COCCn1c(SCC(=O)Nc2nnc(C)s2)nnc1-c1ccncc1 | -0.996% |
| COc1ccc(NC(=O)CCNS(=O)(=O)c2ccc(NC(C)=O)cc2)cc1Cl | 22.8% |
| CC(NC(=O)c1noc2c1CCCC2)c1ccccc1 (stereo not shown) | -9.85% |
| O=C(Nc1cccc(S(=O)(=O)NC2=NCCCCC2)c1)C1COc2ccccc2O1 (stereo not shown) | -13.7% |
| CCc1cc2c(=O)n(CC(=O)NC3CCCCC3)cnc2s1 | 4.86% |
| c1cc(-c2cc3cc(N4CCOCC4)ccc3o2)cs1 | 7.74% |
| COc1ccc(C(CNC(=O)c2ccc(NS(=O)(=O)c3ccc(F)c(C)c3)cc2)N(C)C)cc1 (stereo not shown) | -25.8% |
| Cc1cc(C)cc(N(CC(=O)N/N=C/c2ccncc2)S(=O)(=O)c2ccccc2)c1 | -76.9% |
| C=CCN(CC(=O)NCc1ccccc1)C(=O)c1csnn1 | 7.78% |
| CN(C)c1ccc(CN2CC=C(c3ccc(F)cc3)CC2)cc1 | -69.9% |
| COc1ccc(OC)c(Nc2ncnc3c2cnn3-c2cccc(C)c2)c1 | 9.08% |
| Oc1cccc2cccnc12 | 2.7% |
| Cc1ccc(Cn2c(Sc3nnc(C)s3)nc3c2c(=O)[nH]c(=O)n3C)cc1 | -46.8% |
| CCN(CC)C(=O)c1ccc(NC(=O)CN2CCc3cc(OC)c(OC)cc3C2)cc1 | 16% |
| Cc1sc2nc(CSCC(=O)Nc3cc(F)ccc3F)[nH]c(=O)c2c1C | 6.42% |
| Cc1cc(N2CC(C)OC(C)C2)nc(C(C)C)n1 (stereo not shown) | -6.44% |
| C[C@@H]1CC=C[C@H]2[C@H]1C(=O)N(Cc1ccccc1)[C@H]2c1ccc(F)c(-c2ccc(N(C)C)cc2)c1 | 5.21% |
| O=C1C(=O)N(Cc2cccnc2)C(c2cccc(F)c2)/C1=C(/O)c1ccc2c(c1)OCO2 (stereo not shown) | 21.4% |

| SMILES | hERG current change (%, negative = inhibition) at 10uM |
| --- | --- |
| O=C(Nc1nc2ccsc2c(=O)s1)c1ccc(F)cc1 | -5.72% |
| CCCOc1ccc(N2C(=O)CC(SCCN)C2=O)cc1.Cl (stereo not shown) | -4.66% |
| Cc1ccn(CC(=O)NC2CC(C)(C)Cc3c2cnn3-c2ccc(F)cc2)n1 (stereo not shown) | -15% |
| O=c1cc(N2CCN(c3cccc(Cl)c3)CC2)[nH]c(=O)n1C1CCCCC1 | 4.83% |
| CC(C)c1ccc(N2C(=O)CC(Sc3nc4ccccc4o3)C2=O)cc1 (stereo not shown) | -8.9% |
| O=C(CSc1nnc(-c2cccs2)o1)NCC1CN(Cc2ccccc2)CCO1 (stereo not shown) | -12.6% |
| CC1(c2ccccc2)NC(=O)N(CC(=O)NNC(=O)c2ccccc2)C1=O (stereo not shown) | 21.3% |
| CC(=O)[C@@]1(O)CC[C@H]2[C@@H]3CCC4=CC(=O)CC[C@]4(C)[C@H]3CC[C@@]21C | 1.7% |
| CC(C)CCN1CCC(Cc2ccccc2)(NC(=O)c2ccccc2)C1=O (stereo not shown) | 12.4% |
| COc1ccc(S(=O)(=O)NC(C)C)cc1-n1cnnn1 | 9.29% |
| CCCCN(C(=O)C(C)Oc1ccc(Br)cc1)c1c(N)n(CC(C)C)c(=O)[nH]c1=O (stereo not shown) | -26.2% |
| C(/CCc1ccccc1)=N\n1cnnc1 | 5.25% |
| O=c1c2ccccc2nc(/C=C/c2ccccn2)n1-c1ccccc1 | 10.9% |
| COc1ccc(C2CC(=O)C3=C(C2)NC(C)=C(C(=O)Nc2ccccc2C)C3c2coc3ccc(C)cc3c2=O)cc1OC (stereo not shown) | -8.61% |
| COc1ccccc1CC(=O)N1CCCC(CCC(=O)NCc2ccccc2F)C1 (stereo not shown) | 2.97% |
| CC1CC(C)CN(C(=O)COC(=O)c2cc([N+](=O)[O-])ccc2N2CCOCC2)C1 (stereo not shown) | -54.7% |
| Cc1csc(SC(C)C(=O)NC2CCCCC2C)n1 (stereo not shown) | 5.57% |
| CCOc1ccccc1NC(=O)CN1CCC(C(=O)c2ccc(OC)cc2)CC1 | -65.9% |
| O=C(NCc1ccccc1)C(c1ccc(O)cc1)N(C(=O)c1cnccn1)c1ccccc1 (stereo not shown) | 1.33% |
| Cc1c(C(=O)Nc2ccccc2F)sc2ncn(CC(=O)N3CCOCC3)c(=O)c12 | -4.4% |
| CCCCNC(=S)N1CCC(Cc2ccccc2)CC1 | -24.6% |
| COC(=O)C(Cc1ccc(N(CCCl)CCCl)cc1)N=Cc1ccccc1O (stereo not shown) | 19.4% |

| SMILES | hERG current change (%, negative = inhibition) at 10uM |
| --- | --- |
| O=C(c1ccc(Cl)nc1)N1CCc2ccccc2C1 | -8.23% |
| Cc1ccc(O)c(NC(=O)c2cc(-c3ccccc3)on2)c1 | 13.6% |
| Cc1ccc(SC(C)C(=O)Nc2c(C)n(C)n(-c3ccccc3)c2=O)cc1 (stereo not shown) | -4.85% |
| O=C(NNC(=O)c1ccccc1Cl)c1cccnc1 | 17.1% |
| O=C(NC1CCCCC1)c1ccc(S(=O)(=O)NCc2ccco2)cc1 | 11.4% |
| [O-]c1n[n+](-c2ccc(Cl)cc2)cc2ccccc12 | 8.28% |
| CCNC(=O)CC1C(=O)N(c2ccc(C)cc2)C(=O)N1Cc1ccccn1 (stereo not shown) | -32.5% |
| O=C(CN1C(=O)c2ccccc2C1=O)Nc1ccc2c(c1)OCO2 | 4.32% |
| O=C(OCC(=O)N1CCOCC1)c1cc2ccccc2oc1=O | 0.399% |
| COc1cc(Cl)c(C)cc1NCC(=O)Nc1cccc(S(=O)(=O)N2CCCC2)c1 | -7.46% |
| CCn1c(SCC(=O)NCc2ccc3c(c2)OCO3)nc2c(c1=O)SCC2 | -6.01% |
| Cn1c(=O)cc(OCC(=O)N2CCC3(CC2)OCCO3)c2ccccc21 | 9.09% |
| CC(=O)N(c1c(C)n(C)n(-c2ccccc2)c1=O)C1(C(=O)NC2CCCCC2)CCCCC1 | -10.9% |
| CC(C)(C)NC(=O)CSc1nnnn1C(C)(C)C | 5.27% |
| O=C(Nc1cccc(S(=O)(=O)NC2=NCCCCC2)c1)c1cc(-c2ccc(Cl)cc2)nc2ccccc12 | 6.08% |
| Cc1snc(SCC(=O)c2ccc(F)cc2)c1C#N | -0.35% |
| CC(=O)Nc1c(-c2ccccc2)c2cc(Br)ccc2[nH]c1=O | -3.38% |
| CCNC(=S)N(Cc1cc2c(C)ccc(C)c2[nH]c1=O)C1CCCC1 | 32.8% |
| CC12COC3(C(=O)Nc4ccccc4F)CC1CCC32C (stereo not shown) | 26.8% |
| O=c1[nH][nH]cc1C=Nc1ccccc1Cl | 22.2% |
| COc1cccc(/C=N/NC(=O)CCc2n[nH]c(=O)[nH]c2=O)c1O | 3.7% |
| C=C(C)C1CC=C(CN2CC(C)OC(C)C2)CC1 (stereo not shown) | 10.8% |

| SMILES | hERG current change (%, negative = inhibition) at 10uM |
| --- | --- |
| COC(=O)Cn1c(CN2CCN(C(=O)c3ccco3)CC2)nc2c1c(=O)n(C)c(=O)n2C | 0.463% |
| CNC(=O)Cn1ncc2c(C)n(Cc3ccc(C)cc3)c(C)c2c1=O | -9.35% |
| COc1ccc(C(=O)NCc2ccc(N3CCN(C)CC3)cc2)cc1 | 5.1% |
| Cc1ccc(C)c(NC(=O)CS(=O)(=O)c2cn(C)c3ccccc23)c1 | -20.8% |
| O=C(Cc1ccccc1)Nc1ccc(NC(=O)c2cccc(Cl)c2)cc1 | 2.08% |
| Cc1ccc(C)c(CSCc2nc3ccccc3[nH]2)c1 | 15.4% |
| COc1ccccc1COC(=O)N/C=C/c1ccco1 | -4.7% |
| CCC(=O)N(c1nnc(SCC(=O)Nc2ccc(N3CCOCC3)cc2)s1)C1CC1 | 13.8% |
| Cc1ccc(C(=O)Nc2ccc(N3CCCC3)cc2)c(C)c1 | 17.6% |
| CC(=O)NC1=C(Nc2ccc(N(C)C)cc2)C(=O)c2ccccc2C1=O | -9.79% |
| COc1ccc(CNC(=O)CCC(=O)Nc2nnc(CC(C)C)s2)cc1 | -1.69% |
| O=C(CC1CCC1)Nc1cccc2c([N+](=O)[O-])cccc12 | 10.1% |
| S=c1[nH]nc(-c2ccc(Cl)cc2)n1Cc1ccccc1 | 5.73% |
| O=C(O)CCCNS(=O)(=O)c1ccccc1 | 15% |
| COC(=O)c1ccc(C)c(NC(=O)CCCN2C(=O)NC(C)(C)C2=O)c1 | 5.43% |
| CC(C)CN(CCCNC(=O)CN1N=C(c2ccc(Cl)cc2)CCC1=O)CC(C)C | -21.8% |
| Cc1ccc(CN2CCN(Cc3cccc(OCCO)c3)CC2CCO)o1 (stereo not shown) | -12.1% |
| COc1ccc(-c2cc(=O)c3cc(O)ccc3o2)cc1 | 16.7% |
| CCc1ccc2nc(N3CCC(C(=O)N4CCC5(CC4)OCCO5)CC3)sc2c1 | -42.5% |
| CCOc1ccc(-n2cc(-c3ccccc3)c3c(=S)nc[nH]c32)cc1 | 24.8% |
| C=CCN(Cc1nc(-c2ccccc2)no1)C(=O)c1ccc2c(c1)OCO2 | -31.5% |
| [O-][n+]1onc2c1CCC(=N/O)/C2=N\Nc1ccccc1 | 8.28% |
